The test system of one assay is HSkMC. The experiment in a line: cytotoxicity call (relative viability < 0.9). The settings on record: 10 µM.
A further assay concerns HepG2. Briefly: cytotoxicity call (relative viability < 0.9). The settings on record: 10 µM.
The subject of a further assay is S. aureus RN4220. Briefly: growth inhibition call (relative growth <= 0.2). The settings on record: 50 µM.

The other results are listed elsewhere or left out.

`C[C@@H]1CCCCO[C@@H](CN(C)S(=O)(=O)c2ccccc2)[C@H](C)CN([C@H](C)CO)C(=O)c2cc(NC(=O)Nc3ccc4c(c3)OCO4)ccc2O1`: the cytotoxicity call in the assay with HSkMC and with HepG2 was “inactive” throughout. For the same compound, the growth inhibition call in the assay with S. aureus RN4220 is “inactive”.

Take `C[C@@H]1CCCCO[C@H](CN(C)S(=O)(=O)c2ccccc2)[C@H](C)CN([C@H](C)CO)C(=O)c2cc(NS(C)(=O)=O)ccc2O1`: the cytotoxicity call in the assay on HSkMC and with HepG2 was “inactive” throughout. Further, in the assay on S. aureus RN4220, the growth inhibition call is “inactive”.

For the compound `CCCNC(=O)C[C@H]1CC[C@H]2[C@H](COc3ccc(NC(=O)c4ccc5c(c4)OCO5)cc3C(=O)N2C)O1`, the cytotoxicity call with HSkMC and in the assay on HepG2 was “inactive” in each case. The growth inhibition call with S. aureus RN4220 was “inactive”.

`C[C@H]1CN([C@@H](C)CO)C(=O)Cc2cc(NC(=O)Cc3ccccc3)ccc2O[C@@H]1CN(C)S(=O)(=O)c1cn(C)cn1`: the cytotoxicity call in the assay with HSkMC and with HepG2 was “inactive” each time. In the assay with S. aureus RN4220, the growth inhibition call is “inactive”.

As to `C[C@@H]1CN([C@H](C)CO)C(=O)Cc2cc(NC(=O)Nc3ccc(F)cc3)ccc2O[C@@H]1CN(C)Cc1ccc(Cl)c(Cl)c1`, the cytotoxicity call in the assay on HSkMC and with HepG2 was “active” in each case. The growth inhibition call in the assay with S. aureus RN4220 was “inactive”.

For the compound `Cc1ccc(S(=O)(=O)Nc2ccc3c(c2)C(=O)N([C@H](C)CO)C[C@H](C)[C@H](CN(C)CC2CC2)O3)cc1`, the cytotoxicity call with HSkMC and with HepG2 was “inactive” each time. For the same compound, the growth inhibition call with S. aureus RN4220 was “inactive”.

For `O=C(CN1CCOCC1)NCC[C@H]1CC[C@H](NS(=O)(=O)c2ccc(Cl)cc2)[C@@H](CO)O1`, the cytotoxicity call in the assay with HSkMC and in the assay on HepG2 was “inactive” each time. Further, the growth inhibition call with S. aureus RN4220 is “inactive”.

`O=C(NCCN1CCOCC1)[C@@H]1c2ccccc2C(=O)N(Cc2cc(C(F)(F)F)cc(C(F)(F)F)c2)[C@H]1c1ccc(CO)cc1`: the cytotoxicity call with HSkMC and in the assay on HepG2 was “inactive” throughout. The growth inhibition call in the assay on S. aureus RN4220 was “inactive”.

As to `C[C@@H]1CN([C@@H](C)CO)C(=O)c2cc(NS(=O)(=O)c3cccs3)ccc2O[C@@H](C)CCCCO[C@@H]1CN(C)Cc1ccc(C(=O)O)cc1`, the cytotoxicity call in the assay with HSkMC and in the assay with HepG2 was “inactive” throughout. Besides, the growth inhibition call in the assay with S. aureus RN4220 is “inactive”.

For the compound `Cc1noc(C)c1NC(=O)Nc1ccc2c(c1)C(=O)N([C@H](C)CO)C[C@H](C)[C@H](CN(C)C(=O)Nc1cccc3ccccc13)OCCCC[C@@H](C)O2`, the cytotoxicity call in the assay on HSkMC and with HepG2 was “inactive” in each case. Also, the growth inhibition call in the assay on S. aureus RN4220 was “inactive”.

Regarding `COc1ccc(NC(=O)Nc2cccc3c2O[C@@H](CN(C)C(=O)Nc2ccc(C(F)(F)F)cc2)[C@H](C)CN([C@H](C)CO)C3=O)cc1`, the cytotoxicity call in the assay on HSkMC and with HepG2 was “inactive” throughout. For the same compound, the growth inhibition call in the assay on S. aureus RN4220 was “inactive”.

In the case of `COc1ccc(NC(=O)Nc2ccc3c(c2)C(=O)N([C@@H](C)CO)C[C@@H](C)[C@H](CN(C)C(=O)Nc2ccc(C(F)(F)F)cc2)O3)cc1`, the cytotoxicity call with HSkMC and in the assay with HepG2 was “inactive” each time. Further, the growth inhibition call in the assay on S. aureus RN4220 is “inactive”.

As to `CCCN1C[C@H](C)[C@H](OC)CN(C)C(=O)c2cc(NS(=O)(=O)c3cn(C)cn3)ccc2OC[C@H]1C`, the cytotoxicity call in the assay with HSkMC and with HepG2 was “inactive” in each case. In the assay with S. aureus RN4220, the growth inhibition call was “inactive”.

On to `COc1ccc(CN(C)C[C@@H]2OCCCC[C@H](C)Oc3ccc(NC(=O)Cc4ccccc4)cc3C(=O)N([C@H](C)CO)C[C@@H]2C)cc1`, for which the cytotoxicity call in the assay with HSkMC and with HepG2 was “inactive” each time. In the assay on S. aureus RN4220, the growth inhibition call is “inactive”.

Take `C[C@@H]1CN([C@H](C)CO)C(=O)Cc2cc(NC(=O)Cn3cnnn3)ccc2O[C@@H]1CN(C)C(=O)Nc1ccccc1`: the cytotoxicity call in the assay on HSkMC and in the assay on HepG2 was “inactive” throughout. Moreover, in the assay on S. aureus RN4220, the growth inhibition call was “inactive”.

For `C=CCOC(=O)[C@H]1[C@@H]2C(=O)O[C@@H](c3ccccc3)[C@@H](c3ccccc3)N2[C@@H](c2ccc(OCCOC(=O)[C@@H]3C[C@@H]4C(=O)N[C@@H](CC(C)C)C(=O)N4[C@@H]3c3cccc(OCCO)c3)cc2)[C@]12C(=O)Nc1ccccc12`, the cytotoxicity call in the assay with HSkMC and with HepG2 was “inactive” throughout. The growth inhibition call with S. aureus RN4220 is “inactive”.

For the compound `CO[C@@H]1CN(C)C(=O)c2cc(NC(=O)Nc3ccc(Cl)cc3)ccc2OC[C@H](C)N(C(=O)Nc2c(C)noc2C)C[C@@H]1C`, the cytotoxicity call in the assay on HSkMC and in the assay on HepG2 was “inactive” throughout. For the same compound, the growth inhibition call in the assay on S. aureus RN4220 was “inactive”.

For the compound `COc1cccc(S(=O)(=O)Nc2ccc3c(c2)OC[C@@H](C)N(C(=O)Cc2cccnc2)C[C@@H](C)[C@@H](OC)CN(C)C3=O)c1`, the cytotoxicity call with HSkMC and in the assay with HepG2 was “inactive” each time. In addition, the growth inhibition call in the assay with S. aureus RN4220 was “inactive”.

Take `Cc1ccc(S(=O)(=O)N2C[C@H](O)COC[C@H]3O[C@@H](CC(=O)N[C@H]4CCN(Cc5ccccc5)C4)CC[C@@H]32)cc1`: the cytotoxicity call in the assay on HSkMC and in the assay with HepG2 was “inactive” each time. Further, the growth inhibition call in the assay with S. aureus RN4220 was “inactive”.

As to `c1ccc(-c2nn(-c3ccccc3)c3c2cnc2ccccc23)cc1`, in the assay on HSkMC, the cytotoxicity call was “inactive”. Moreover, the cytotoxicity call in the assay with HepG2 was “active”. Also, in the assay on S. aureus RN4220, the growth inhibition call is “inactive”.

Consider `COCCOC(=O)N1C(=O)[C@@]2(c3cc(C#Cc4ccc(OC)cc4)ccc31)[C@H](C(=O)N1CCc3cc(OC)c(OC)cc3C1)[C@H]1C(=O)O[C@H](c3ccccc3)[C@H](c3ccccc3)N1[C@@H]2c1ccc(OCCO)cc1`, for which the cytotoxicity call in the assay on HSkMC (human skeletal muscle cells) and with HepG2 was “inactive” throughout. In the assay with S. aureus RN4220, the growth inhibition call was “inactive”.

With `CN(C)CCCNC(=O)C[C@@H]1CC[C@H](NS(=O)(=O)c2ccccc2)[C@@H](CO)O1`, the cytotoxicity call in the assay with HSkMC and in the assay with HepG2 was “inactive” each time. Moreover, the growth inhibition call in the assay with S. aureus RN4220 was “inactive”.

The values above are taken from the antibiotic and cytotoxicity screens of Wong et al. (2023).
